Data from PubChem BioAssay AID493169 (National Center for Advancing Translational Sciences (NCATS), 2011).
The inconclusive results got no clear call from the source; some entries with a clear call stand among them for comparison. Where the call is inconclusive, the potency comes from a doubtful curve fit. Activity calls are given as the source filed them. Calls come from the whole dose curve; as a rule, active = well fitted inhibition curve with a large enough effect; inconclusive = small, poorly fitted or top-dose-only effect; inactive = flat fitted curve, though single readings scatter.
% is set by controls: 0 for no effect and ±100 for the full control effect; potency is the fitted concentration of half-maximal effect; tags give direction and shape of the fitted curve.

Assay: CHOP2 Reporter Counterscreen Assay for Inhibitors of Ubiquitin-specific Protease USP2a;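 note: activated enterokinase alone at 50 pM in a cell-free format rather than USP2a or CHOP2; nearly all actives have a fitted effect of over 55% in size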
Conditions: purified enterokinase, fluorogenic substrate, 485/531 nm; series mostly up to 38.3 µM; activity change, negative = inhibition: at the top concentration
How it was run: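 Cell-free counterscreen with pre-activated enterokinase alone (50 pM final) in 20mM Tris-HCl pH 8.0, 2mM CaCl2, 2mM beta-mercaptoethanol, 0.05% CHAPS; compound preincubation 30 min RT, reporter substrate 25nM final, fluorescence read after 10 min (Ex 485/Em 531).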
In the case of CSc1ccc(NC(=O)CSc2nc3[nH]c(=O)cc(O)c3s2)cc1, the Potency is reported as inconclusive: 10 µM [inhibitor, single point]. In the case of Nc1c(C(=O)Nc2ccc(Cl)cc2)oc2ccccc12, the “activity change, negative = inhibition” value is reported as inactive: -5.29%. With O=C(Nc1cccc(Cl)c1)Nc1nnc(CC2=CCCCC2)s1 the “activity change, negative = inhibition” value was inactive: 2.28%. In the case of Cc1c(O)c(CN2CCCC2)cc2c3c(c(=O)oc12)CCC3, the “activity change, negative = inhibition” value is reported as inactive: 1.28%. With O=C(Nc1ccc(N2CCCC2)cc1)C(c1ccccc1)c1ccccc1 the Potency was inconclusive: 28.2 µM [inhibitor, single point]. In the case of Cc1[nH]c2ccccc2c1C(c1ccccn1)c1c(C)[nH]c2ccccc12, the “activity change, negative = inhibition” value is reported as inactive: -6.71%. With Cc1cc(N)c2cc(NC(=O)/C=C/c3ccccc3Cl)ccc2n1 the Potency was inconclusive: 12.6 µM [inhibitor, single point]. For C=C1c2c(Cl)ccc(O)c2C(O)=C2C(=O)[C@]3(O)C(O)=C(C(N)=O)C(=O)[C@@H](N(C)C)[C@@H]3[C@@H](O)C12 (some centres not stated), the Potency was inconclusive: 22.4 µM [inhibitor, single point]. In the case of CCC(C)Sc1nc2c(c(=O)[nH]1)C(c1cccs1)C1=C(CCCC1=O)N2 (configuration not stated), the Potency is reported as inconclusive: 10 µM [inhibitor, single point]. For Nc1ccc(C2=Nc3cccc4cccc(c34)N2)cc1, the Potency was inconclusive: 12.6 µM [inhibitor, partial curve, poor fit]. In the case of Cn1cccc1CC(=O)N/N=C/C=C/c1ccco1, the Potency is reported as inconclusive: 14.1 µM [inhibitor, single point]. In the case of Cc1cc(N=Nc2ccc(C)c(N=Nc3cc(C)c(N)cc3N)c2)c(N)cc1N, the Potency is reported as inconclusive: 22.4 µM [inhibitor, single point].
